Source: PubChem BioAssay AID651820 (National Center for Advancing Translational Sciences (NCATS), 2012)
Among all 340,000 compounds or so, about 12,000 (3.5%) were called active. The shares of active, inactive and inconclusive entries below differ from those in the screen. The call rests on the fitted dose curve; in most records, active means well fitted inhibition curve with a large enough effect; inconclusive means small, poorly fitted or top-dose-only effect, or another doubt; inactive means no such curve, though single readings can be large or run the other way. Potencies of inconclusive entries are left out as doubtful fits.

assay: qHTS Assay for Inhibitors of Hepatitis C Virus (HCV); settings: Huh7.5.1 HCVcc-Cre (HCVcc is cell-culture hepatitis C virus) infection, luciferase reporter, 44 h; activity change, negative = inhibition: at 41.8 µM (top of the series) unless noted
Procedure, shortened: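 Infectious HCV cell culture screen: compound-treated cells (1,000/well, pre-plated 4 h) are infected with HCVcc-Cre at roughly 0.5 moi and grown 44 h. Infection is quantified by luciferase signal after 15 min substrate incubation at room temperature.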
On the % scale 0 is the no-effect control and ±100 the full control effect; potency means the concentration at half of the fitted maximal effect; tags describe the fitted curve by direction and shape.

Compound | Potency | activity change, negative = inhibition
CCCCc1cc(=O)oc2cc(C)cc(OCC(=O)Nc3cccnc3)c12 | inconclusive [inhibitor, partial curve] | 
Cc1cccc(-n2cnc3cc(C(=O)N4CCCCC4)ccc32)c1 | inconclusive [inhibitor, single point] | 
COc1cc(OC)cc(-c2nnc(SCC(=O)N(C(C)C)C(C)C)o2)c1 |  | inactive: -9.28%
CN(Cc1ccccc1)c1nc2c(c(=O)[nH]c(=O)n2C)n1CCOc1ccccc1 | inconclusive [inhibitor, single point] | 
COc1ccc(-c2cc3ccccc3n2CC(O)Cn2nc(C)cc2C)cc1 (stereo not given) | inconclusive [inhibitor, single point] | 
O=C(CN1C(=O)COc2ccccc21)N(Cc1ccc2c(c1)OCO2)CC1CCCO1 (stereo not given) | inconclusive [inhibitor, full curve] | 
CCCCCn1c(=O)[nH]c2cc(C(=O)NC3CCN(Cc4ccccc4)CC3)ccc2c1=O |  | inactive: 12.5%
Cc1ccc(SC[C@H](c2ccccc2)N2CCN(CC(C)C)CCC2=O)cc1 |  | inactive: 5.68%
COc1cc(NC(=O)c2ccc(COc3ccccc3Br)o2)cc(OC)c1OC | active: 5.01 µM | 
O=C(Cn1c(=O)c2sccc2n(Cc2ccc([N+](=O)[O-])cc2)c1=O)NCCc1ccccc1 | inconclusive [inhibitor, single point] | 
COc1cccc(CNC(=O)C2CCN(S(=O)(=O)c3ccc4c(c3)CC(C)N4C(C)=O)CC2)c1 (stereo not given) |  | inactive: -11.7%
COc1ccc(NC(=O)Nc2cccc3c2O[C@H](CN(C)S(=O)(=O)c2ccc(F)cc2)[C@@H](C)CN([C@H](C)CO)C3=O)cc1 | inconclusive [inhibitor, single point] | 
COc1cc(C(=O)Nc2ccc(NC(C)=O)cc2)ccc1OCc1ccccc1 | inconclusive [inhibitor, full curve] | 
CCCc1ccc(C2C3=C(CC(C)(C)CC3=O)NC3=C2C(=O)c2ccccc23)cc1 (stereo not given) | active: 2.24 µM | 
CC(C)Cc1nc2oc3c(NCC(C)O)ncnc3c2c2c1CCCC2 (stereo not given) | inconclusive [inhibitor, full curve] | 
CCCCCCSc1ccc(-c2nc3cc(C)ccn3c2NC2CCCCC2)cc1 |  | inactive: 5.76%
Cc1c(C(=O)OCC(=O)Nc2ccc(C(N)=O)cc2)cccc1[N+](=O)[O-] | inconclusive [inhibitor, single point] | 
CCOC(=O)N1CCC(NC(=O)c2cccc3c2C(=O)N(c2ccc(OC)cc2)C3)CC1 |  | inactive: 3.95%
COc1ccc(NC(=O)CSc2nc3ccccc3c(=O)n2CCCO)cn1 |  | inactive: 5.47%
Nc1nc(CSC(=S)N2CCCCC2)nc(Nc2ccccc2)n1 |  | inactive: -2.5%
CC12CCC(C(N)C1=O)C2(C)C (stereo not given) |  | inactive: 16.3%
CCOC(=O)N1CCN(Cc2nc3c(c(=O)n(C)c(=O)n3C)n2Cc2ccc(F)cc2)CC1 |  | inactive: -12.5%
Cc1cccc(NC(=O)CCN2C(=O)c3ccccc3S2(=O)=O)c1C |  | inactive: 1.29%

Compound | Potency | activity change, negative = inhibition
Cc1ccc(NC(=O)CN(Cc2ccco2)Cc2ccccc2O)cc1C | inconclusive [inhibitor, single point] | 
CC1CCc2c(nc3sc4c(c3c2N)CCCC4)C1 (stereo not given) | active: 11.2 µM | 
O=C(Nc1ccccc1N1CCCCC1)c1ccc(F)c(S(=O)(=O)N2CCOCC2)c1 | active: 10 µM | 
CC1(C)CC(=O)C(C2=NC3(CCCCCC3)Cc3ccccc32)=C(O)C1 | inconclusive [inhibitor, single point] | 
CC(C)[C@@H](CO)NC(=O)c1ccc2c3n(nc2c1)-c1ccccc1CO3 | inconclusive [inhibitor, single point] | 
COc1ccc(NS(=O)(=O)c2cccc(N/C(=N\S(=O)(=O)c3ccccc3)c3ccc(F)cc3)c2)cc1 | inconclusive [inhibitor, single point] | 
COc1ccc(C(=O)CSc2nnc(COc3ccccc3)n2Cc2ccco2)cc1 | inconclusive [inhibitor, single point] | 
CN(C)c1nc(Nc2ccc(Cl)cc2)nc(OCC#N)n1 | inconclusive [inhibitor, single point] | 
Cc1ccc(NC(=O)C2SC(=Nc3ccccc3)C(C(=O)Nc3ccc(Cl)cc3)=C2N)cc1 (stereo not given) | inconclusive [inhibitor, single point] | 
O=C(N/N=C/c1ccccn1)c1cc(-c2ccc(Br)s2)[nH]n1 |  | inactive: 14.1%
C/C(=N\NC(=O)c1ccc(Cl)cc1)c1cccc(NC(=O)c2cccnc2)c1 | inconclusive [inhibitor, partial curve] | 
COc1ccc(Cl)cc1NC(=O)COC(=O)C1CC1 | inconclusive [inhibitor, single point] | 
Cc1ccc2cc(C)c3nnc(SCC(=O)NCc4ccco4)n3c2c1 |  | inactive: -14%
O=C1OC(c2ccccc2)=C/C1=C/N1CCCCC1 | inconclusive [inhibitor, single point] | 
CC(=O)c1ccc(S(=O)(=O)N2CCN(CC(=O)NC(=O)NC3CCCCC3)CC2)cc1 | inconclusive [inhibitor, single point] | 
CC(=O)Nc1ccc(N2CCOCC2)c(C(=O)Nc2cccc(C)c2)c1 | inconclusive [inhibitor, single point] | 
CCCc1ccc(-c2ccc(F)c(N)c2)nc1 |  | inactive: -18.1%
CC(C)c1ccc(/C=C2\SC(=O)N(CC(=O)NCCCn3ccnc3)C2=O)cc1 | inconclusive [inhibitor, single point] | 
O=C(CCn1c(=O)oc2ccccc21)N1CCN(C(c2ccccc2)c2ccccc2)CC1 | inconclusive [inhibitor, single point] | 
Cc1cc(/C=N/O)c(C)n1-c1ccccc1 |  | inactive: -1.2%
Cc1cc(N/N=C/c2ccc(O)cc2O)nc(-c2ccccc2O)n1 | inconclusive [inhibitor, partial curve] | 
COc1ccc(N2CCN(C(=O)CSc3nnc4c(C)cc5cc(C)ccc5n34)CC2)cc1 | inconclusive [inhibitor, partial curve] | 
